Laboratory results published in article PMC10726135.
The other results are listed elsewhere or left out. At the low end of the ranking the order means little. Measured with an extract: partners may take part in the binding.

Target: T1, HNF4alpha8 (COS-7 nuclear extract) (UniProt P41235-5)
T1 sequence: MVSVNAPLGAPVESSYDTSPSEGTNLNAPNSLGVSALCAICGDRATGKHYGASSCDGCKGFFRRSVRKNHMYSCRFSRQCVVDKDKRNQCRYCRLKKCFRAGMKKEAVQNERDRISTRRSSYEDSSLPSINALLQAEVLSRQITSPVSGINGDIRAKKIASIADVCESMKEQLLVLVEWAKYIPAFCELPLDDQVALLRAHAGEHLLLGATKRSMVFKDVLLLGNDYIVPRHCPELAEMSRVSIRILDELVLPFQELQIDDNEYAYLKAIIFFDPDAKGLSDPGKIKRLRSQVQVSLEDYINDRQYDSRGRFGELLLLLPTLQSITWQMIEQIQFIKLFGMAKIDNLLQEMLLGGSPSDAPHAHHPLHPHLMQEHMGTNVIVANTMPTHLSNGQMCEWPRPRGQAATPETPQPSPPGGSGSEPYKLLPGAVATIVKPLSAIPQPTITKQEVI
Assay: protein-binding microarray
Conditions: COS-7 nuclear extract on double-stranded Agilent 4x180k PBM; binding buffer, salt, pH and temperature not given; high values mean tight binding; double strand, one strand shown; sequences stand for … in …GCCTAGGGAGATTAGAGTATCGGTCGA

Sequence	binding signal (log2 normalized intensity)
ACATCCTGGATTCTCAAACCTTCCAAAGTT	0.853
GCAGCCTCTGAGATGGACTCCAGTGATCTT	2.76
TATTTGAGTTCTTCAAGTCAGTCAAAATGA	1.18
TTGGAGGAGGGGGCGGTTAAACATTCAGAT	-1.32
CGACCCCTCGAGGCAACCTTTGACCTGGTA	8.16
GCATTCCAAGAGAGCAAAGTGCTTTTTAAC	1.58
CCCTCCTGAACATAATTGCAAAATCCTTAG	-1.25
CTTTCATGATCCTTGGCTGTGTGACTCACC	1.05
GACTTTAGAACCCAAATAGACTTAAGTCTG	0.828
GGAGTTCCATTTAGCTTCAGTCTAAATGAT	-0.39
GTCTGATTGGTTGCAGAAGGCAGCCAAACA	-1.4
AGGCATACTCCTCCTGGCTTCTGGACTATG	3.12
GGGAAAGACTTAGGATCTAGCAAATTTGGG	-1.37
CAAATGCTTCCAAGAATTTAAGAGAACTAG	-1.41
TCGCAGCTGCATAGATAAGAAAGGCTACAA	-1.32
TGGTGGACGTACGCTCCCAGTATGAGCGGC	-1.2
CTAAGCAGGCACATTCCAGGACCTTTGCTC	4.83
CAATGTGTGACAGAAGTCATGTCTCATTGC	0.632
ATGCCAGATGACCTTTGCCCTTGACTTTTT	9.28
AGAGGAAAGCCCTAGCTGACTGCGTCAGGC	-1.48
TTACATGCCTTATCTGGTTCAAAGGTCATT	8.2
AAAGCCACCCCTTTCTCCTCTCTTTCCATA	0.633
CGAGAAGGCAGCCACCCACAAGCCAAGGAG	-1.27
ACTCCAGAACCAAAGTCCTAGAGTCCCTAT	-1.32

Sequence	binding signal (log2 normalized intensity)
CTAGGCAATCCCATGACCTTTGTACTAATG	8.3
TATGTTGTCCGGACACCAACCTTTGATCAT	6.21
CAAAGTCCGCTTGCCTGAGGGTCATGACTA	2.89
CCGGGAATCCTCAGCCTTCTCCGCGGCGGG	-1.39
AAGCACTTCAAAGGTCGTGTGCTTATCACA	2.06
TAGCAGGTGACAAATCCAGGATCAAATACA	-1.47
CATATTTGCTTAAGCTTTCTGTCTGCAGCT	-1.31
TTTTTGGCCTTTACCCCTTGAGTTTGAACT	4.12
GCAGCAGCCGGCCTCTTAACAGATGAGGAC	-1.26
TTTGGAAAACTGGCCCTGATTTCAAAGTTC	3.23
CCCCTGACTACCAGCCAGTAGGAGTTGGAA	-1.11
CATAGTTGACATTCCATCATTATCCTGTGT	1.7
ACTTTACAGATAAAGAAACCATAGACCCTA	-1.32
CACATTCAGCCCACTTCCTACCATCAAAGG	0.434
TTTGACCATCCACGGGTCCATGATTGCTGT	2.1
AGATAGCTTGAGGCCAGCTCATAGGGATCA	-1.29
GTGAGAGGCGGAACAAGGCTGAAGGGAAGC	-1.34
GTAAAAACAGTTATGGATTAAAAGCACATA	-1.21
ACCTTGTTTTGTCTTCTGTTTGCAAATGGA	2.22
AGGGGCTGCTGGGAGTTGTAGTTTTTTGGG	1.32
TGCATTCTTGTAGGTTTTTTTTTTTTTTAA	2.24
CTTTTTTTTTTCAAGTGTTAGCTGTTTCCA	0.447
TCTGCTGAGGTGGCTGCAGAGTGGGAGGCC	-1.27
TTCCCTCCACTTCCTTTCTTTCCCTTTCTG	0.396

Sequence	binding signal (log2 normalized intensity)
TGCACAGGTTCCTCGCCTATGGTATGTATG	1.53
TTGAAGCTCCAAGATAGGAATGTACATAAT	0.638
AGGGTTTAAAGGGCAGAAGAAGGGATTTAG	1.74
ACTCCTGGAAAAACCACACACTCCATAACT	-1.17
GTTAGATAGAGGAGTCAAGCAAACACACTT	-1.31
AGCATTTGTTTTAAGTTCATAGGTCCTCTT	2.24
CCTGGACCCCTCCGGCAGCGGCCGGAAAAA	1.66
CCTCGGGTCCCACACACCTCAAATGCAGGT	-1.37
ACCCTAGAGATGTACACAGTTCAAAGGGCA	6.49
AAAGGAATGTGCCTGCAAGTTCAAAAGGAC	1.17
CTTAACAAACACAAAAAGCGGACAAACCAG	-1.35
AAGATAAAGTGTCTCTATTTGGAACCAAGA	0.941
GTTGGAAGCTGATAAGCCAAGAATGTACTC	0.371
GGCAAGCAGGAGCTGGCCTGGTAGGACAGG	-1.33
GCCAGGGATTAAAGAATTCGTCCAGGGCCG	-1.27
GAGAGTCAACACTGAAATAGCATACCTTTA	-1.02
TCCATCAATGAAGCATATCAGTAGTTGCAA	0.0715
GAATGCTGTCCTGCCAGTTGTCATTTGGGG	0.651
TTCTTTATGGACCTTGTCCCTGGATTGTGT	4.6
TGCTGGAGATGAGGCTCAGACCTGACCTTT	7.17
TAAACAGCATTTGTTTTAAGTTCATAGGTC	4.97
GATTTTGTTGGGGAACTTTGCCCGGATTCC	3.21
AAAGGTTAACATTCTTGCTTTCTGACTCTT	1
GGCGGCGCGGCCGGAGCGGCGGACCCGGCG	0.392

Sequence	binding signal (log2 normalized intensity)
AGGGGAGGCTGAGGTTTTCATCCCAGGGCT	-1.41
CAGAGGGTGGCAGCAGCAGGCAGGGACTTT	2.15
TTAACCTTTGATCATATGCATTTCCCTAGA	3.82
ATCACACAAAACGCACAGAGGCCCCTGATG	-1.24
TAGTCTAGACTTTGCTTTCTTGGAGGTTAA	2.19
TTGCAGCAAGGAATTCAACCCTTGTCACTT	3.35
GACATGCAGTATGGGGACTTTGGACTCCTG	8.41
ACAGACTCTGGGAGATAAAGCAGAGGGCTG	-1.35
AGAGCAATCTCTCATCTGCCTTGTGATTTC	0.631
ACCAGGGGTCATTTTATGGGAAAACAGAAT	1.5
ATAACATGAGGATACTGATAACATGAGGTA	-0.314
TATCTGTAAAATGGACATAGTAACAACCTA	-1.25
CAGCCACGCTCCTCTTATCATTAGATTCCA	-0.531
AGGAGATGTGGTGGACTTTAACGACCTTTG	5.28
AGAGAATAGCTCAGGTCCAAGGAACCTCAC	-1.32
CACAGTGTAGAAGGCAAGGGTCAAGATGTC	2.31
TTCGGTGCTGACCTTTGTTCACATTTGTGC	5.96
GAGAAGTGAACTTTGCCCTCTCTTTCTGGA	8.26
CACTGTTGCCCCTTCCAAAGTCCACCTCAA	5.11
CTAGGAGAGTCCGGGGCAAACAAGGGCAAC	0.0674
AAAGAAGAATGTGGCCATTTTACTTGTCAA	0.377
